Measurements as given in article PMC10726135.
The list shows a part of the results. At the low end of the ranking the order means little. Measured with an extract: partners may take part in the binding.

Target: T1, HNF4alpha8 (COS-7 nuclear extract) (UniProt P41235-5)
T1 sequence: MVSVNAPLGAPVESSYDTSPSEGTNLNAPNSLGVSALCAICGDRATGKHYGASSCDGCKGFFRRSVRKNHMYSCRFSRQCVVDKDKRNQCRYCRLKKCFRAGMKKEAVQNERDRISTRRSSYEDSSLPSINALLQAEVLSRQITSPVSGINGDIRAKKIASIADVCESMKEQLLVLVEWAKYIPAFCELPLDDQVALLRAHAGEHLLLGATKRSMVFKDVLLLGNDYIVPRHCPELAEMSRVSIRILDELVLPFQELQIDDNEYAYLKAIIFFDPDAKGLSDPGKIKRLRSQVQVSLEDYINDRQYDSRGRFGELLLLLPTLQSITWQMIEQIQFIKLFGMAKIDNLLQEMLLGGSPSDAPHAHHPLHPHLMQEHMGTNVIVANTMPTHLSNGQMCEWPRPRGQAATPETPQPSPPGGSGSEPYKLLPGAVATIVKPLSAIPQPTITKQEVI
Assay: protein-binding microarray
Settings: COS-7 nuclear extract on double-stranded Agilent 4x180k PBM; binding buffer, salt, pH and temperature not given; high values mean tight binding; double strand, one strand shown; sequences stand for … in …GCCTAGGGAGATTAGAGTATCGGTCGA

Sequence | binding signal (log2 normalized intensity)
ATAAAACTGGAATAAAGCAGTCCCTACTTC | -1.29
ACAGAACAGATGGTGTTAAATCCTATCCTA | -1.22
TAAATGACATAGTGACATTTACAGATAAAG | -0.971
GCCACCTGCTGGCTGAGCATCACCAGTGCA | -1.43
CTCCCTCCCTCCCCCATTAGAGGCACACTC | 4.45
TCCTGAGTGATTGTAGTGTCATTGTTATTT | 1.98
AAGGAAATATCTTCCCATAAAACCTAGACA | -1.08
GGTGAGTGGGGAAAGAGCCCCTTTGTCCAT | 0.812
TCGGTCACCCACACAAAAATGTGCCTTCCC | -1.24
TGTTCACAAGGAATTGGAATTGGGAGGACA | -0.642
CAGGACCATCTCGTCCCGTCAATCTGCAGC | -1.23
TGGATTCCTCCAGCCCTCCTCTCTGTAGTC | 0.728
CGACTACAACAGCCTTGCAGATAAGCCACG | -1.49
GAGGCCAGTCTTACTGCTTTCTATTCAGAC | -1.27
TCTCCCACAAGGGCAGCCCTGTTTAGGAGG | -1.3
TGTTCTGTTTAACAGAGATTTGCAGCTCAA | -1.34
CCTAGCTGACTGCGTCAGGCAGTTGGAATT | 0.00218
GACTGGAATGTCAAAGGGACAGCACTGGCA | -1.27
TTTGTCCTGGCACAACTGGATGGTGTTTGA | 1.19
TGGTGCTATCTTTGCTCACTGTAACCTTTG | 4.34
GTGAATGGATGGATCCGCAGCCAGGGCTGT | -1.24
ACTTCAAAGGGTGTTGTGACTACCTGGTTA | 0.742
TTAGTCTTATCTGAGGTGCCCTTACATTTT | 1.95
CCTTTGCCTCCACCTTCTCTCCCACTTATC | 0.941
TCCAACCTTTGCTCACTTGGGGGTGGGGTG | 2.78

Sequence | binding signal (log2 normalized intensity)
ACAACCAGGGAGATGTGAGCGACCTTTGCA | 4.55
CCCATCAGCTGGGCTTGTTCAAATAACAGC | -1.38
ACCTTTGTCCTCATTGAGCCCTCCCCTTGT | 4.38
AAATCCCGAGCCAGAGCCAAAGGGCATATT | 2.23
TAAGGTTCAAAGGGAAAAAATAATCAGCTT | -1.12
AAAACCCATGGACCTGACACCCGCTGGCGC | -1.22
CTCGGGGATGGCATGTCTCTGGTCGGGGAG | -0.939
AAAGGCCACCACAAACCCTTCATCCAGCTG | -1.42
CTATTCAGGTATTTGCTCTGTGATAGCCTT | 0.476
GATGATCATGGCTCACTGCACCTTGACCTC | 8.12
GGTGGACTTTCCCCCCTCACACTTTGGCTA | 4.24
CGATGTATACAGTATCTATAGTTATTGCAT | -0.171
AAGCTATTCACTTTTTGGCCTTTGGCTGTT | 3.01
CTGGTCTTTGTCCTGGGAGAACAAACCTTA | 1.01
ACTTTGGCGTGCTGTGTACTTTGAACTGAA | 6.92
CGGGCCCCAAGTGGCCATCTTCACGCAATA | -1.36
TCATAACACTTGTATGACCTTTGTTTTATT | 5.08
TGAATTAGTACCTCAATGCTATCTCCCAGT | 0.716
TGTAGGTAAGCACAAAGTACAGCTTTTTGT | 1.39
CCGGGGCGCCCTTTGTTCTCCGGGTTCTGC | 2.53
CGCGAGAGCCGAAGTCTCTCGCCGAGGCCC | -1.3
TTGTCAGATGAGGAAATTGAGGCTTAGCAG | -1.32
GATATTTAACCTTTGATCTGTAAGCTCTCT | 5.39
AGAAAGTAGAACGGTGGTTGTCAGAGACTG | -1.18
TTAACACAGGACAAATCAAGTGAAATGCCA | -1.28

Sequence | binding signal (log2 normalized intensity)
AGTGATAAGCAGAGGATGGGAATTAGGGAG | -1.32
CTGCCTGTCTCACCTCGCTATCACCCCGAT | 2.72
CGAGATCAAGGGACAGAGATAACTGGGGGC | -1.31
TGTGATGTTTGTAAACTGTCATGGTGCTGG | 1.25
GTGTTGTGCTGACCTCCTGTCTCATCCTGT | 1.98
TCTGTTGGTGGCACAGGGAATGGCTCGTAT | -0.108
GTGAGGCATCTGGACCATTGCTGACCTTGC | 3.69
TTCCAAAGTTCAACCTCATTATCTTCAGTC | 2.05
ACGATCAGCCAGCAGGGGGCGCAGAAGGGA | -1.24
ATGTGGGGAAACTGGACTGTAATTTGTGGT | 1.34
AGGTGTCAGGGGTCAATGTGCACATTCGAA | 5.06
GGAAGAGAAGACCAAACAACCAGGGAGATG | -1.3
GCGTATTTCAACCTTTGATCTATAACCACG | 5.51
AGGTCCAAACTTCTCCACTCTTCATAATTA | -0.86
TCCAGGCTGCACAGTGGGGAGGGCAGGGTC | 2.52
ATCGAAGTCTGGGAAGCTGTGTGAAGTGAC | -0.114
AACAAACAGTACATTCTGGAATGATACGCC | -0.937
CCAAAGAAGAAAACAATGACCTCTGCACCC | 6.16
ATAACCATCAAATCCTCGGAAGACGCACCT | -1.29
CATTTGCTCCCAGTGCACACAGACTTTTGT | 0.698
ACTTTGGGGAAATGACCTTTGTCCAGCTGT | 7.84
GAAAATCAAAGACTCAGATGAGTTTCTTCA | -0.907
GTGCAGTATCCCAGGGACTTACTCAACTAG | -1.31
GGATGTGGGGTATCAGGTGGTGATGGTGGG | 1.23
AGCTGGCACAGCAGATGCTGGGCAAAGGGC | 4.21

Sequence | binding signal (log2 normalized intensity)
TGCAGTAAATGGACAGACACACCCTTCAGA | -1.24
TTCCCCAGTGAGGATGTGTGCTCGAGGTGG | 1.11
CTTCCCCAAACTAGGAGAGTGGACTCACAG | 3.31
CTGAGTTACAGATAAGCAGAAGGTCAGGTG | 1.77
ACAGGTGGACAAACAGGCTGAACATGACTG | -1.33
CTATGCACACGTTCAGTTAGAGGGCTCAAT | -1.23
GCAACAGAAAACTCAACTTCTAACTTCCGG | -1.22
CCTAAAAATTATCTTTATCTTTTCACTTTT | 0.601
TAATTTTCAACCTCTTTCTCTTTGATGTAA | 0.817
GACCTTTGATATTTGTGCCTAGTGGAAGGT | 4.39
TTATCAGCAGTGACTTGAGAGGCCAGTTTC | 0.207
CTCCTCAACCTCTCCAATGCTATGCTTTTA | -1.29
GACAGTGAGACGCAAGCATATCTCTAGATC | -1.29
ACATGTCAAAGGTCAAAGGGCATAGCCTCA | 5.75
GCTGCGGATCAAAGGAGCTGGGCCTGTGCT | -1.35
ACGGAGCTGCCTCACATGAGCTAGAGCTCG | -1.26
GTCTCTTCCTCAGTTTGTTCTTGGGGCCCA | 1.43
GGACTCTGCCCTTAGCAGTGGGAGACAGGC | 3.76
CTGTGTCAAAAATCAGGGACAAAGTCCAAA | 7.06
AGTCTCTAGCCCCGCCCAGATGTCTGGCTA | 2.67
CAGAAGCTGAGCTCCCCCAGTGAGCAATTC | 2.88
CTAACCTTTGAACCAGATGGCCCTCTCCAA | 3.28
AAGTTTGTTTCTTATCACACAGTCAACATG | 1.43
TTTGGTGAAACTCCACTACATTAGCAGCGC | -1.05
CAGTCCTCTGCTTATCTGGCCTGCTGGGAA | -0.172

Sequence | binding signal (log2 normalized intensity)
CTGAGCCCTTATCTTTTTAGCAACTGGTAT | 1.14
AAAGAAGAAGTGAAAAGTCGTTTTCAGTGT | 0.217
CCTTTGGCATTGTGTTACGTCTGGTTTCTT | 1.67
AGTTATCTAAGACCCATCCCTCAGGGTCCA | 4.17
TTACGTAAGTGAAAGTACACAGTGCCTGCT | -0.84
TATCATCCCTATCACTCAAGAAATGGCAGT | -0.405
CTTACCCCTTTGCTGATTACCTCAACTCCC | 1.55
AAAGGCCTTTGAAGCTTGAAGGAGTATATG | 0.256
ACAGAGAGGCTTCTGGCCAGGCAGAGCAGG | -1.36
TTGACTGAGACTGCCTCAAACAGCTTCGCC | -1.35
AACAGGTCCTGCTGGTTTGCCATTTGGAGA | 0.548
GTATGAGGGTGAAGTTTGGCAATTACCCAA | -1.27
ACGGTGGGCACCTCATACTATACCTGATAG | -1.21
TTGCCTAAAGGGGATTTTCTCAGCTCTCCT | -1.3
GGATCAAAGGAGCTGGGCCTGTGCTGGGGA | -1.35
GTCTGCCCTCCATGTAACCCCTTTTCAATT | 3.57
TAAAGTCTGCTATCTAAAAGCTTATCTGCA | -1.22
ATGTTTTCACCAAGAGGGAAAAGATGGTCT | 0.365
AACAAATAAATAAGAAGCCTTATCAGTATC | -1.28
CGGTGGGACTAAATTCTGCGGCGGAAGGAC | -1.36
TAACTTTTGTCTCTGGAGGGATCAGGTCTT | 1.25
TAGGGTAGGGTTAGGGTTAGGGGTTAGGGG | 0.702
TTATATTGAATTCCTGGAAATCCCGAAATA | -1.38
AATTTCCAACAAATGAAACTAAAGGCACCT | -1.15
CAGCAGTGTACTTGAGCTTCCAGTTAAGCA | -1.34

Sequence | binding signal (log2 normalized intensity)
AATCCCAGCTCGTGGGCATGCCTCCCAGAG | -1.22
CCTGCCAACTCCACGCCCGCCGCCAGGTGG | -1.32
GGTCACATGCCTAGGTAAGCCCACTAGGGA | -1.36
AGGCACTTAGCAAATATTTACTGAATGAAT | -1.17
ACACCTGTTCTAATCAGTAGCTCACAAATA | -1.32
GGGGGGTGTTATCTCTGATGCCCTTTGGCC | 7.01
CCCAGGCTTATCTCACTCCAAAGGCTGTTT | 0.193
GTCGCTTGGAAAAAAAAAAAAAAAAAAGAA | -1.34
ACCAGGGGCCAGCAAGAGGTGACCCCAGGG | 4.66
CCTTCCAGCAGCAGGCCTGGGGGCAAAGTC | 3.59
GTTACAGTGGAGAAACCTGACAGACTGGAC | -1.37
AAGATAGAGGCTTTAGCAATAAATTCTGTT | -1.3
CTGTGTTTTGCCCCTGCAGAGTTTTTTACT | 1.91
GTGGGGAAAGAGCCCCTTTGTCCATTATCT | 0.534
AGTGGAAATTGTCCTGCGGTTGGCTCAGGC | -1.31
TCCATCTAAATGGCAATGGCTGCAGCTCTT | -1.32
GACAATGGGAGACATTCCTTCAGCGTGAAC | -0.781
CGGACAGGTAACGTAAACAAGTAAGGAAGA | -1.36
TCAAAGTGTCAGTCCAGAGTTTGTGGCTCC | 0.982
CAGGTATTTGCTCTGTGATAGCCTTTTACC | 1.5
